Measurements from the supplement of paper PMC8813932.
Where a name gives a salt, the structure may show the parent alone. ± gives the standard deviation of the averaged measurements. Some of the results follow. Most values come without repeats; read them as rough.

Legend:
Experiment in all cases: log2 surviving fraction relative to plate median (drug vs vehicle, or drug+dl922-947 vs dl922-947 alone); ovarian cancer lines: OVCAR4 is platinum-sensitive while Ov4Cis resists cisplatin and Ov4Carbo carboplatin; higher = more cell survival
Details in all cases: compound concentration: 10 uM, 192 h
[1] = system: OVCAR4
[2] = system: Ov4Carbo
[3] = system: Ov4Cis
[4] = dl922-947 oncolytic adenovirus co-treatment: MOI 10
[5] = dl922-947 oncolytic adenovirus co-treatment: none

SMILES	log2 surviving fraction [1, 4]	log2 surviving fraction [1, 5]	log2 surviving fraction [2, 4]	log2 surviving fraction [2, 5]	log2 surviving fraction [3, 4]	log2 surviving fraction [3, 5]
C[C@]12CC[C@@H]3c4ccc(O)cc4CC[C@H]3[C@@H]1CC[C@@H]2O [Estradiol]	0.409 ± 0.28	-0.211 ± 0.13	0.0836	0.472	0.374	-0.0736
C[C@@H]1O[C@@H](O[C@H]2C[C@@H](O)[C@]3(CO)[C@H]4[C@H](O)C[C@]5(C)[C@@H](C6=CC(=O)OC6)CC[C@]5(O)[C@@H]4CC[C@]3(O)C2)[C@H](O)[C@H](O)[C@H]1O [Ouabain]	-8.01 ± 0.61	-9.88 ± 6.1	-6.82	-9.92	-7.23	-13.3
Nc1nc(F)nc2c1ncn2[C@@H]1O[C@H](COP(=O)(O)O)[C@@H](O)[C@@H]1O [Fludarabine Phosphate (Fludara)]	0.318 ± 1.6	1.73 ± 2	0.262	1.21	-0.0325	0.251
CC(C)(C#N)c1cc(Cn2cncn2)cc(C(C)(C)C#N)c1 [Anastrozole]	0.867 ± 0.49	3.08 ± 2.6	0.247	-0.0983	0.0306	0.823
CC(CCc1ccc(O)cc1)NCC(O)c1ccc(O)cc1 (configuration not stated) [Ractopamine HCl]	-0.0182 ± 0.014	-0.552 ± 0.53	-0.944	-0.345	-0.481	-0.347
CCN1CCC[C@H]1CNC(=O)c1cc(S(N)(=O)=O)ccc1OC [Levosulpiride (Levogastrol)]	0.401 ± 0.57	0.285 ± 0.74	1.27	0.119	0.823	0.571
CC(C)OC(=O)C(C(=O)OC(C)C)=C1SC=CS1 [Malotilate]	0.479 ± 0.46	3.13 ± 3.9	1.34	0.449	0.253	-0.309
O=C(O)CCc1nc2ccccc2[nH]1 [Procodazole]	0.602 ± 0.2	-0.318 ± 0.88	0.367	-1.63	-0.0931	0.0389
COc1ccc([C@H]2CNC(=O)C2)cc1OC1CCCC1 [S-(+)-Rolipram]	-0.694 ± 0.94	-0.624 ± 0.25	0.477	-0.252	-0.628	-0.968
COC(=O)N/N=C/c1c[n+]([O-])c2ccccc2[n+]1[O-] [Carbadox]	-0.682 ± 0.77	-0.35 ± 0.54	0.474	0.995	-0.131	0.577
C[C@@H]1CC[C@H]2[C@@H](C)C(=O)O[C@@H]3O[C@@]4(C)CC[C@@H]1[C@]32OO4 [Artemisinin]	0.473 ± 0.14	-0.257 ± 0.26	-0.426	1.11	-0.0973	0.722
NC[C@@H]1O[C@H](O[C@H]2[C@@H](O)[C@H](O[C@@H]3[C@@H](O)[C@H](N)C[C@H](N)[C@H]3O[C@H]3O[C@H](CO)[C@@H](O)[C@H](O)[C@H]3N)O[C@@H]2CO)[C@H](N)[C@@H](O)[C@@H]1O [Paromomycin Sulfate]	0.223 ± 0.35	0.572 ± 0.21	-0.0408	1.01	-0.637	0.809
OCCN1C[C@H](O)[C@@H](O)[C@H](O)[C@H]1CO [Miglitol (Glyset)]	0.345 ± 0.85	0.375 ± 0.04	-0.353	0.263	0.755	1
CC(C)NC[C@H](O)COc1ccc(CCOCC2CC2)cc1 [Levobetaxolol HCl]	-0.475 ± 0.75	0.868 ± 1.6	0.217	-0.58	-0.236	-0.782
COc1c(N2C[C@@H]3CCCN[C@@H]3C2)c(F)cc2c(=O)c(C(=O)O)cn(C3CC3)c12 [Moxifloxacin hydrochloride]	0.103 ± 0.45	-0.208 ± 0.29	-0.933	0.293	-0.83	-0.115
CCOC(=O)c1ccc(C#Cc2ccc3c(c2)C(C)(C)CCS3)nc1 [Tazarotene (Avage)]	-0.0307 ± 0.16	0.382 ± 0.023	-0.304	0.674	0.0622	0.393
CC(C)C[C@H]1C(=O)N2CCC[C@H]2[C@]2(O)O[C@](NC(=O)[C@@H]3C=C4c5cccc6[nH]c(Br)c(c56)C[C@H]4N(C)C3)(C(C)C)C(=O)N12 [Bromocriptine Mesylate]	-0.387 ± 1.2	-1.4 ± 1.7	-0.914	-5.78	0.0116	-2.64
C[C@H]1NC(=O)NC1=O [Methylhydantoin-5-(D)]	0.527 ± 1.1	0.774 ± 1.1	-0.114	0.443	0.955	-0.206
CN1CC(=O)NC1=N [Creatinine]	0.815 ± 0.37	0.32 ± 0.17	0.407	0.464	-0.223	0.378
Cc1cccc(C)c1NC(=O)C1CCCCN1C (configuration not stated) [Mepivacaine HCl]	0.25 ± 0.36	0.367 ± 0.11	0.462	-0.492	0.268	0.795
CC(C)(C)c1nc(-c2cccc(NS(=O)(=O)c3c(F)cccc3F)c2F)c(-c2ccnc(N)n2)s1	1.1 ± 0.59	0.379 ± 0.69	2.53	-4.75	1.35	-0.495

SMILES	log2 surviving fraction [1, 4]	log2 surviving fraction [1, 5]	log2 surviving fraction [2, 4]	log2 surviving fraction [2, 5]	log2 surviving fraction [3, 4]	log2 surviving fraction [3, 5]
C[N+](C)(C)CCCCCC[N+](C)(C)C [Hexamethonium bromide]	-0.12 ± 0.2	0.654 ± 0.97	-2.07	0.0464	-0.214	0.383
CN(C)CCc1c[nH]c2ccc(C[C@H]3COC(=O)N3)cc12 [Zolmitriptan (Zomig)]	0.547 ± 0.33	0.349 ± 0.31	-1.41	0.741	0.139	0.804
CCN[C@H]1CN(CCCOC)S(=O)(=O)c2sc(S(N)(=O)=O)cc21 [Brinzolamide]	0.316 ± 0.29	1.06 ± 1.2	-0.253	0.327	-0.234	0.228
CC(=O)OCC(=O)[C@@]1(O)CC[C@H]2[C@@H]3CCC4=CC(=O)CC[C@]4(C)[C@H]3C(=O)C[C@@]21C [Cortisone acetate (Cortone)]	0.265 ± 0.41	0.445 ± 0.13	1.14	-0.236	1.11	0.399
O=C(O)c1cccnc1 [Niacin (Nicotinic acid)]	-1.432 ± 0.0063	-0.104 ± 0.39	1.5	1.03	-0.271	-0.24
CCc1c(Cl)c(O)c(Cl)c(O)c1C(=O)O[C@H]1[C@H](O)[C@H](OC)[C@H](OC/C2=C\C=C\C[C@H](O)/C(C)=C/[C@H](CC)[C@@H](O[C@@H]3OC(C)(C)[C@@H](OC(=O)C(C)C)[C@H](O)[C@@H]3O)/C(C)=C/C(C)=C/C[C@@H]([C@@H](C)O)OC2=O)O[C@@H]1C [Fidaxomicin]	0.214 ± 0.99	-1.78 ± 0.29	-1.21	-2.53	0.387	-0.785
CCC1(c2ccccc2)C(=O)NCNC1=O [Primidone (Mysoline)]	0.0702 ± 0.95	-0.34 ± 0.61	0.164	0.205	-0.0142	0.253
CC(C)Cc1ccc(C(C)C(=O)O)cc1 (configuration not stated) [Ibuprofen Lysine (NeoProfen)]	-0.173 ± 0.37	-0.11 ± 0.11	0.491	-0.214	0.456	-0.457
CC(=O)Oc1ccc(C(c2ccc(OC(C)=O)cc2)c2ccccn2)cc1 [Bisacodyl]	-2.2 ± 0.74	-3.99 ± 0.87	-0.824	-0.521	-0.889	-0.192
NC(CO)(CO)CO [Trometamol]	0.2 ± 0.62	-0.287 ± 0.66	1.97	0.239	0.203	-0.491
COC(=O)C1=C(C#N)NC(C)=C(C(=O)OC(C)C)C1c1cccc([N+](=O)[O-])c1 (configuration not stated) [Nilvadipine (ARC029)]	-0.486 ± 0.52	-1.37 ± 0.87	0.23	-1.36	-0.0285	-0.629
Cc1cccc(C)c1OCC(C)N (configuration not stated) [Mexiletine HCl]	0.769 ± 0.5	1.03 ± 0.38	0.0224	-0.0501	-0.226	0.404
CCCCCCCCCCCCCCCC[N+](C)(C)C [Cetrimonium Bromide]	-8.61 ± 0.38	-7.28 ± 11	-7.5	-10.5	-8.77	-13.2
CN1CCC(=C2c3ccccc3CC(=O)c3sccc32)CC1 [Ketotifen fumarate (Zaditor)]	-0.424 ± 0.5	-0.109 ± 0.023	-1.17	-0.51	-0.802	-0.415
CC(=O)NS(=O)(=O)c1ccc(N)cc1 [sulfacetamide sodium]	0.812 ± 0.28	0.421 ± 0.11	0.21	0.733	0.522	-0.353
CCC(=O)O[C@]1(C(=O)CCl)[C@@H](C)C[C@H]2[C@@H]3C[C@H](F)C4=CC(=O)C=C[C@]4(C)[C@@]3(F)[C@@H](O)C[C@@]21C [Halobetasol Propionate]	-0.0877 ± 0.46	-1.73 ± 0.052	-0.207	-0.818	0.637	-3.17
CO[C@@H]1[C@@H](OC(N)=O)[C@@H](O)[C@H](Oc2ccc3c(O)c(NC(=O)c4ccc(O)c(CC=C(C)C)c4)c(=O)oc3c2C)OC1(C)C [Novobiocin sodium (Albamycin)]	0.799 ± 0.15	0.427 ± 0.55	0.585	0.574	0.211	0.39
Cc1cc(NS(=O)(=O)c2ccc(N)cc2)no1 [Sulfamethoxazole]	-0.355 ± 0.85	0.657 ± 0.29	-0.334	0.992	0.894	1.92
CC(C)OC(=O)C(C)(C)Oc1ccc(C(=O)c2ccc(Cl)cc2)cc1 [Fenofibrate (Tricor, Trilipix)]	1.31 ± 0.47	0.314 ± 1.2	0.74	0.966	-0.143	1.51
CCN(C)C(=O)Oc1cccc([C@H](C)N(C)C)c1 [Rivastigmine tartrate (Exelon)]	0.00574 ± 0.48	0.115 ± 0.7	-0.789	-0.397	0.0179	0.701
O=C(Nc1ccccc1)c1ccccc1O [Salicylanilide]	-0.0641 ± 0.17	-0.865 ± 0.68	-0.484	-0.174	0.824	-1.3
